From the supplement of paper PMC12423691
The list shows a part of the results. Binding of human transcription factors and regulators to the viral nucleoprotein by AlphaScreen, crude cell-free proteins, amounts not normalised, one pass. Fold of the Venus control; higher = more signal. No active / inactive call. Single-pass screen; sequences are the whole Swiss-Prot entries looked up by name.

B1: CREB3, O43889 (protein)
chain: MELELDAGDQDLLAFLLEESGDLGTAPDEAVRAPLDWALPLSEVPSDWEVDDLLCSLLSPPASLNILSSSNPCLVHHDHTYSLPRETVSMDLESESCRKEGTQMTPQHMEELAEQEIARLVLTDEEKSLLEKEGLILPETLPLTKTEEQILKRVRRKIRNKRSAQESRRKKKVYVGGLESRVLKYTAQNMELQNKVQLLEEQNLSLLDQLRKLQAMVIEISNKTSSSSTCILVLLVSFCLLLVPAMYSSDTRGSLPAEHGVLSRQLRALPSEDPYQLELPALQSEVPKDSTHQWLDGSDCVLQAPGNTSCLLHYMPQAPSAEPPLEWPFPDLFSEPLCRGPILPLQANLTRKGGWLPTGSPSVILQDRYSG
B2: TCF25, Q9BQ70 (protein)
chain: MSRRALRRLRGEQRGQEPLGPGALHFDLRDDDDAEEEGPKRELGVRRPGGAGKEGVRVNNRFELINIDDLEDDPVVNGERSGCALTDAVAPGNKGRGQRGNTESKTDGDDTETVPSEQSHASGKLRKKKKKQKNKKSSTGEASENGLEDIDRILERIEDSTGLNRPGPAPLSSRKHVLYVEHRHLNPDTELKRYFGARAILGEQRPRQRQRVYPKCTWLTTPKSTWPRYSKPGLSMRLLESKKGLSFFAFEHSEEYQQAQHKFLVAVESMEPNNIVVLLQTSPYHVDSLLQLSDACRFQEDQEMARDLVERALYSMECAFHPLFSLTSGACRLDYRRPENRSFYLALYKQMSFLEKRGCPRTALEYCKLILSLEPDEDPLCMLLLIDHLALRARNYEYLIRLFQEWEAHRNLSQLPNFAFSVPLAYFLLSQQTDLPECEQSSARQKASLLIQQALTMFPGVLLPLLESCSVRPDASVSSHRFFGPNAEISQPPALSQLVNLYLGRSHFLWKEPATMSWLEENVHEVLQAVDAGDPAVEACENRRKVLYQRAPRNIHRHVILSEIKEAVAALPPDVTTQSVMGFDPLPPSDTIYSYVRPERLSPISHGNTIALFFRSLLPNYTMEGERPEEGVAGGLNRNQGLNRLMLAVRDMMANFHLNDLEAPHEDDAEGEGEWD
B3: ATOH8, Q96SQ7 (protein)
chain: MKHIPVLEDGPWKTVCVKELNGLKKLKRKGKEPARRANGYKTFRLDLEAPEPRAVATNGLRDRTHRLQPVPVPVPVPVPVAPAVPPRGGTDTAGERGGSRAPEVSDARKRCFALGAVGPGLPTPPPPPPPAPQSQAPGGPEAQPFREPGLRPRILLCAPPARPAPSAPPAPPAPPESTVRPAPPTRPGESSYSSISHVIYNNHQDSSASPRKRPGEATAASSEIKALQQTRRLLANARERTRVHTISAAFEALRKQVPCYSYGQKLSKLAILRIACNYILSLARLADLDYSADHSNLSFSECVQRCTRTLQAEGRAKKRKE
B4: TBX22, Q9Y458 (protein)
chain: MALSSRARAFSVEALVGRPSKRKLQDPIQAEQPELREKKGGEEEEERRSSAAGKSEPLEKQPKTEPSTSASSGCGSDSGYGNSSESLEEKDIQMELQGSELWKRFHDIGTEMIITKAGRRMFPSVRVKVKGLDPGKQYHVAIDVVPVDSKRYRYVYHSSQWMVAGNTDHLCIIPRFYVHPDSPCSGETWMRQIISFDRMKLTNNEMDDKGHIILQSMHKYKPRVHVIEQGSSVDLSQIQSLPTEGVKTFSFKETEFTTVTAYQNQQITKLKIERNPFAKGFRDTGRNRGVLDGLLETYPWRPSFTLDFKTFGADTQSGSSGSSPVTSSGGAPSPLNSLLSPLCFSPMFHLPTSSLGMPCPEAYLPNVNLPLCYKICPTNFWQQQPLVLPAPERLASSNSSQSLAPLMMEVPMLSSLGVTNSKSGSSEDSSDQYLQAPNSTNQMLYGLQSPGNIFLPNSITPEALSCSFHPSYDFYRYNFSMPSRLISGSNHLKVNDDSQVSFGEGKCNHVHWYPAINHYL
B5: TBX19, O60806 (protein)
chain: MAMSELGTRKPSDGTVSHLLNVVESELQAGREKGDPTEKQLQIILEDAPLWQRFKEVTNEMIVTKNGRRMFPVLKISVTGLDPNAMYSLLLDFVPTDSHRWKYVNGEWVPAGKPEVSSHSCVYIHPDSPNFGAHWMKAPISFSKVKLTNKLNGGGQIMLNSLHKYEPQVHIVRVGSAHRMVTNCSFPETQFIAVTAYQNEEITALKIKYNPFAKAFLDAKERNHLRDVPEAISESQHVTYSHLGGWIFSNPDGVCTAGNSNYQYAAPLPLPAPHTHHGCEHYSGLRGHRQAPYPSAYMHRNHSPSVNLIESSSNNLQVFSGPDSWTSLSSTPHASILSVPHTNGPINPGPSPYPCLWTISNGAGGPSGPGPEVHASTPGAFLLGNPAVTSPPSVLSTQAPTSAGVEVLGEPSLTSIAVSTWTAVASHPFAGWGGPGAGGHHSPSSLDG
B6: POU2F3, Q9UKI9 (protein)
chain: MVNLESMHTDIKMSGDVADSTDARSTLSQVEPGNDRNGLDFNRQIKTEDLSDSLQQTLSHRPCHLSQGPAMMSGNQMSGLNASPCQDMASLHPLQQLVLVPGHLQSVSQFLLSQTQPGQQGLQPNLLPFPQQQSGLLLPQTGPGLASQAFGHPGLPGSSLEPHLEASQHLPVPKHLPSSGGADEPSDLEELEKFAKTFKQRRIKLGFTQGDVGLAMGKLYGNDFSQTTISRFEALNLSFKNMCKLKPLLEKWLNDAESSPSDPSVSTPSSYPSLSEVFGRKRKKRTSIETNIRLTLEKRFQDNPKPSSEEISMIAEQLSMEKEVVRVWFCNRRQKEKRINCPVATPIKPPVYNSRLVSPSGSLGPLSVPPVHSTMPGTVTSSCSPGNNSRPSSPGSGLHASSPTASQNNSKAAVNSASSFNSSGSWYRWNHSTYLH
B7: ZEB1, P37275 (protein)
chain: MADGPRCKRRKQANPRRNNVTNYNTVVETNSDSDDEDKLHIVEEESVTDAADCEGVPEDDLPTDQTVLPGRSSEREGNAKNCWEDDRKEGQEILGPEAQADEAGCTVKDDECESDAENEQNHDPNVEEFLQQQDTAVIFPEAPEEDQRQGTPEASGHDENGTPDAFSQLLTCPYCDRGYKRFTSLKEHIKYRHEKNEDNFSCSLCSYTFAYRTQLERHMTSHKSGRDQRHVTQSGCNRKFKCTECGKAFKYKHHLKEHLRIHSGEKPYECPNCKKRFSHSGSYSSHISSKKCISLIPVNGRPRTGLKTSQCSSPSLSASPGSPTRPQIRQKIENKPLQEQLSVNQIKTEPVDYEFKPIVVASGINCSTPLQNGVFTGGGPLQATSSPQGMVQAVVLPTVGLVSPISINLSDIQNVLKVAVDGNVIRQVLENNQANLASKEQETINASPIQQGGHSVISAISLPLVDQDGTTKIIINYSLEQPSQLQVVPQNLKKENPVATNSCKSEKLPEDLTVKSEKDKSFEGGVNDSTCLLCDDCPGDINALPELKHYDLKQPTQPPPLPAAEAEKPESSVSSATGDGNLSPSQPPLKNLLSLLKAYYALNAQPSAEELSKIADSVNLPLDVVKKWFEKMQAGQISVQSSEPSSPEPGKVNIPAKNNDQPQSANANEPQDSTVNLQSPLKMTNSPVLPVGSTTNGSRSSTPSPSPLNLSSSRNTQGYLYTAEGAQEEPQVEPLDLSLPKQQGELLERSTITSVYQNSVYSVQEEPLNLSCAKKEPQKDSCVTDSEPVVNVIPPSANPINIAIPTVTAQLPTIVAIADQNSVPCLRALAANKQTILIPQVAYTYSTTVSPAVQEPPLKVIQPNGNQDERQDTSSEGVSNVEDQNDSDSTPPKKKMRKTENGMYACDLCDKIFQKSSSLLRHKYEHTGKRPHECGICKKAFKHKHHLIEHMRLHSGEKPYQCDKCGKRFSHSGSYSQHMNHRYSYCKREAEERDSTEQEEAGPEILSNEHVGARASPSQGDSDERESLTREEDEDSEKEEEEEDKEMEELQEEKECEKPQGDEEEEEEEEEVEEEEVEEAENEGEEAKTEGLMKDDRAESQASSLGQKVGESSEQVSEEKTNEA
B8: SOX10, P56693 (protein)
chain: MAEEQDLSEVELSPVGSEEPRCLSPGSAPSLGPDGGGGGSGLRASPGPGELGKVKKEQQDGEADDDKFPVCIREAVSQVLSGYDWTLVPMPVRVNGASKSKPHVKRPMNAFMVWAQAARRKLADQYPHLHNAELSKTLGKLWRLLNESDKRPFIEEAERLRMQHKKDHPDYKYQPRRRKNGKAAQGEAECPGGEAEQGGTAAIQAHYKSAHLDHRHPGEGSPMSDGNPEHPSGQSHGPPTPPTTPKTELQSGKADPKRDGRSMGEGGKPHIDFGNVDIGEISHEVMSNMETFDVAELDQYLPPNGHPGHVSSYSAAGYGLGSALAVASGHSAWISKPPGVALPTVSPPGVDAKAQVKTETAGPQGPPHYTDQPSTSQIAYTSLSLPHYGSAFPSISRPQFDYSDHQPSGPYYGHSGQASGLYSAFSYMGPSQRPLYTAISDPSPSGPQSHSPTHWEQPVYTTLSRP
B9: GMEB1, Q9Y692 (protein)
chain: MANAEVSVPVGDVVVVPTEGNEGENPEDTKTQVILQLQPVQQGLFIDGHFYNRIYEAGSENNTAVVAVETHTIHKIEEGIDTGTIEANEDMEIAYPITCGESKAILLWKKFVCPGINVKCVKFNDQLISPKHFVHLAGKSTLKDWKRAIRLGGIMLRKMMDSGQIDFYQHDKVCSNTCRSTKFDLLISSARAPVPGQQTSVVQTPTSADGSITQIAISEESMEEAGLEWNSALTAAVTMATEEGVKKDSEEISEDTLMFWKGIADVGLMEEVVCNIQKEIEELLRGVQQRLIQAPFQVTDAAVLNNVAHTFGLMDTVKKVLDNRRNQVEQGEEQFLYTLTDLERQLEEQKKQGQDHRLKSQTVQNVVLMPVSTPKPPKRPRLQRPASTTVLSPSPPVQQPQFTVISPITITPVGQSFSMGNIPVATLSQGSSPVTVHTLPSGPQLFRYATVVSSAKSSSPDTVTIHPSSSLALLSSTAMQDGSTLGNMTTMVSPVELVAMESGLTSAIQAVESTSEDGQTIIEIDPAPDPEAEDTEGKAVILETELRTEEKVVAEMEEHQHQVHNVEIVVLED

The binders below were run against nucleoprotein N of Crimean-Congo hemorrhagic fever virus (assay: AlphaScreen luminescence signal relative to Venus negative control (fold); higher = stronger binding to CCHFV N).
Protocol: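 AlphaScreen binding of cell-free made, FLAG-GST-tagged human transcription factors and regulators (crude translation products) to biotinylated N protein; signal as fold of the FLAG-GST-Venus control. One pass.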

Binder | AlphaScreen luminescence signal
B1 | 4.7
B2 | 9.58
B3 | 7.12
B4 | 2.09
B5 | 1.67
B6 | 2.74
B7 | 2
B8 | 2.42
B9 | 1.72
